Among all 52,000 compounds or so, about 1,700 (3.3%) were called active. No stated cut-off is given here; in the data, active means survival mostly below about 52% (no sharp cut-off); inactive means mostly above about 56%. The list shows a part of the results.

This test deals with Wild type. Description: growth inhibition of S. aureus wild type versus tarO mutant, primary screen, teichoic acid synthesis inhibitors, RN4220, OD600 (AID 463173). The settings on record: S. aureus RN4220 wild type/DeltatarO growth, OD600, 18 h, stronger effect = lower value, screened at 18.75 µg/mL (by protocol).
Take `O=c1[nH]c2ccc(NCc3ccccc3F)cc2[nH]1`: the survival is inactive: 84%.

As to `CCc1cccc(NC(=O)CC2Oc3ccc(C)cc3NC2=O)c1` (configuration not stated), the survival was inactive: 89%.

`Cc1ccc(NC(=O)CC2Sc3ccccc3NC2=O)c(Br)c1` (configuration not stated): the survival is inactive: 138%.

As for `CC(Cc1ccccc1)N=C1NS(=O)(=O)c2ccccc21` (configuration not stated), the survival was inactive: 109%.

In the case of `O=C(NCCS(=O)(=O)N1CCN(c2cccc(Cl)c2)CC1)c1cc(=O)c2ccccc2o1`, the survival is inactive: 74%.

With `C=C(C)Cn1c(SCC(=O)Nc2cccc(Cl)c2)nc2sc3c(c2c1=O)CCCC3`, the survival was inactive: 89%.

On to `O=C(NCCC1=CCCCC1)c1ccc2c(c1)N(Cc1ccc(Cl)cc1)C(=O)c1ccccc1S2=O` (configuration not stated), for which the survival is inactive: 90%.

Consider `CC1=C(c2ccc(C)c(C)c2)S(=O)(=O)N=C1N1CCC(C(=O)NCc2ccc(Cl)cc2)CC1`, for which the survival is inactive: 69%.

On to `CCOc1ccc(C=Nc2ccc3c(c2)ncn3C)cc1`, for which the survival was inactive: 102%.

Turning to `CCOc1ccc(NC(=O)Cn2cc(C(=O)c3ccc(CC)cc3)c(=O)c3ccc(C)nc32)cc1`, the survival was inactive: 153%.

Consider `CCOC(=O)c1cccc(NC(=O)c2cnc(N3CCCCC3)c3ccccc23)c1`, for which the survival was inactive: 78%.

Consider `COc1ccc(-n2c(=O)c3c(c4cc(OC)ccc4n3C)n(C)c2=O)cc1`, for which the survival is inactive: 89%.

On to `Cc1ccc(CNC(=O)CN2CCCN(Cc3ccc(F)cc3)S2(=O)=O)cc1`, for which the survival is inactive: 60%.

Turning to `Cc1ccc(-n2c(=O)c3cccnc3n2CC(=O)NCc2ccc(F)cc2)cc1C`, the survival was inactive: 54%.

With `O=C(c1ccccc1)N1CC(=O)N2CCc3ccccc3C2C1` (configuration not stated), the survival is inactive: 94%.

`O=C(COc1ccccc1F)Nc1ccc(Cl)c(-c2nc3ccccc3[nH]2)c1`: the survival is inactive: 38%.

As for `COc1ccc(NC(=O)CSc2nccn2Cc2ccco2)cc1OC`, the survival is inactive: 73%.

`Cc1cc(C)c(/C=C/c2onc(C)c2S(=O)(=O)N2CCC(C(=O)Nc3ccc(Cl)c(C(F)(F)F)c3)CC2)c(C)c1`: the survival is inactive: 73%.

In the case of `CCN(CC)S(=O)(=O)c1ccc2c(c1)N(CC(=O)Nc1c(C)cc(C)cc1C)C(=O)C1CCCN21` (configuration not stated), the survival was inactive: 57%.

Turning to `Cc1oc2c(c1C(=O)Nc1ccc(C(=O)O)cc1)CCCC2`, the survival is inactive: 113%.

As for `Cc1ccc2nc(NC(=O)CSc3nccn3Cc3ccccc3)sc2c1`, the survival is active: 10%.

For the compound `CCOCCc1nnc(NC(=O)C(=O)c2cc(C)n(-c3cccc(Cl)c3)c2C)s1`, the survival was inactive: 84%.

In the case of `COc1cc(NC(=O)c2cc(-c3cccc(Cl)c3)on2)c(OC)cc1Cl`, the survival was inactive: 85%.

On to `CCOC(=O)c1cnc2ccccc2c1Nc1ccc(N2CCOCC2)cc1`, for which the survival is inactive: 68%.

As for `COc1ccccc1NC(=O)c1nc(SCc2ccc(F)cc2)ncc1Cl`, the survival was inactive: 88%.

For `CCc1ccc(N2CCn3c2nc2c3c(=O)n(CCc3ccccc3)c(=O)n2C)cc1`, the survival was inactive: 91%.

Turning to `Cc1cccc(Cn2c(=O)n(-c3ccc(Cl)c(Cl)c3)c(=O)c3c(C)c(C)sc32)c1`, the survival was inactive: 86%.

Consider `Cc1ccc(N(CC(=O)N2CCN(c3cc(Cl)ccc3C)CC2)S(=O)(=O)c2c(C)noc2C)cc1`, for which the survival was inactive: 84%.

As for `Clc1ccc(-c2nc3ccccn3c2Nc2ccc3c(c2)OCCO3)s1`, the survival is inactive: 79%.

On to `COc1ccc(OC)c(NC(=O)c2sc3nc4c(cc3c2N)CCCCCC4)c1`, for which the survival is inactive: 70%.

With `COc1ccc(NC(=O)c2sc3nc(C)c(C(=O)Nc4ccc(C)cc4C)c(-c4cccs4)c3c2N)cc1`, the survival is inactive: 85%.

Regarding `Cc1noc2ncnc(NCc3ccccc3Cl)c12`, the survival is inactive: 124%.

`CCOc1ccc(NC(=O)C(=O)NCCc2csc(-c3ccc(C)cc3)n2)cc1`: the survival was inactive: 71%.

On to `CCN(Cc1ccccc1)C(=O)Cn1c(=O)oc2cc(S(=O)(=O)N3CCCCCC3)ccc21`, for which the survival is inactive: 129%.

As for `Cc1ccccc1CSc1cn(CC(=O)N2CCCC2)c2ccccc12`, the survival was inactive: 85%.

In the case of `Cc1ccc(NC(=O)c2ccco2)nc1`, the survival is inactive: 112%.

For `Cc1ccc(C)c(N2CCN(C(c3ccc(F)cc3)c3nnc(-c4ccccc4)o3)CC2)c1` (configuration not stated), the survival is active: 14%.

Consider `CCC(=O)N1CCc2cc(S(=O)(=O)NCCC(=O)Nc3ccc(OC)c(OC)c3)ccc21`, for which the survival is inactive: 78%.

Regarding `COc1ccc(-c2nnn(CC(=O)N(c3ccccc3)C(C(=O)NC3CCCC3)c3ccco3)n2)cc1` (configuration not stated), the survival was inactive: 85%.

`COC(=O)/C=C\c1cc(Br)ccc1C#N`: the survival is inactive: 98%.

Turning to `CCOC(=O)c1oc2ccccc2c1CN(C)CCc1ccccc1`, the survival is inactive: 114%.

As for `Cc1cnc2c(c1SCC(=O)NCc1ccc(F)cc1)c(=O)n(C)c(=O)n2C`, the survival is inactive: 63%.

With `COc1cc(-c2nnn(CC(=O)NCc3ccccc3)n2)cc(OC)c1OC`, the survival was inactive: 102%.

For the compound `Cc1cccc(N2CCN(c3ncnc4c3c(-c3ccccc3)cn4-c3ccccc3)CC2C)c1` (configuration not stated), the survival is inactive: 138%.

Take `CCOc1ccc(-c2cc(C(=O)N3CCN(c4ccc(C)cc4)C(C)C3)c3ccccc3n2)cc1` (configuration not stated): the survival was inactive: 110%.

Take `c1ccc2c(c1)ncn2-c1ncnc2sc3c(c12)CCCC3`: the survival was inactive: 107%.

As to `CCCCn1nc(NC(=O)c2cccc(Cl)c2)c2cc3ccc(C)cc3nc21`, the survival is inactive: 88%.

Consider `CC(=O)Nc1ccc(NS(=O)(=O)c2cc3c4c(c2)CC(=O)N4CCC3)cc1`, for which the survival was inactive: 128%.

As to `CC(C)(C)c1ccc(OCC(=O)NC(Cc2c[nH]c3ccccc23)C(=O)O)cc1` (configuration not stated), the survival is inactive: 80%.

With `COc1cccc(CNC(=O)CCCn2c(=O)c3cccn3c3cccnc32)c1OC`, the survival is inactive: 120%.

In the case of `COc1ccc(-c2cc3nc(C)c(CCC(=O)N4CCN(c5cc(C)ccc5C)CC4)c(C)n3n2)c(OC)c1`, the survival was inactive: 72%.

`Cn1cc(S(=O)(=O)c2ccc(Cl)cc2)c(=O)c2cc(F)c(N3CCOCC3)cc21`: the survival is inactive: 73%.

In the case of `COc1cc(C(=O)NCCS(=O)(=O)N2CCN(c3ccccc3)CC2)cc(OC)c1OC`, the survival was inactive: 73%.

For `O=C(NN=C1C2CC3CC(C2)CC1C3)c1ccncc1`, the survival was inactive: 108%.

Turning to `CCOc1ccc(NC(=O)CN2CCN(CC(=O)Nc3ccc(OC)cc3)CC2)cc1`, the survival is inactive: 74%.

Take `CN(C(=O)CSc1nc2ccc(NC(=O)COc3ccccc3Cl)cc2s1)c1ccccc1`: the survival was inactive: 56%.

For the compound `Cc1ccc(Nc2c(-c3ccccc3O)nc3cc(C)ccn23)cc1`, the survival was inactive: 73%.

For the origin of these results see PubChem BioAssay AID463173 (ICCB-Longwood Screening Facility, Harvard Medical School, 2010).
